# Out of some 290,000 compounds screened, about 2,100 (0.72%) were called active. The inconclusive results got no clear call from the source; some entries with a clear call stand among them for comparison. Calls follow the shape of the dose curve; as a rule, active = well fitted inhibition curve with a large enough effect; inconclusive = small, poorly fitted or top-dose-only effect, or effect the other way; inactive = flat fitted curve, though single readings scatter. Where the call is inconclusive, the potency comes from a doubtful curve fit.
# Biological target: Fructose-bisphosphate aldolase (Giardia intestinalis (strain ATCC 50803 / WB clone C6)) (UniProt A8B2U2)
# Sequence of UniProt A8B2U2 (A8B2U2 whole entry, looked up): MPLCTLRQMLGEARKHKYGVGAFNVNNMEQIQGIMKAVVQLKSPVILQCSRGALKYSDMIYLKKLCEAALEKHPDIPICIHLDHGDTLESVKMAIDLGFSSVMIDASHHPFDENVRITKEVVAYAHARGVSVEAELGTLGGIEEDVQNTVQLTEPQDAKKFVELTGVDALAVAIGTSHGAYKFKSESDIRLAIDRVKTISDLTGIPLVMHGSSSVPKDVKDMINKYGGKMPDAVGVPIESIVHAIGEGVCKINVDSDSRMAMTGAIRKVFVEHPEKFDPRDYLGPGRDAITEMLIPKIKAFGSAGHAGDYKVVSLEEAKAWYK
# Assay: qHTS Assay for Inhibitors of Fructose-1,6-bisphosphate Aldolase from Giardia Lamblia; also: nearly all actives have a fitted effect of over 55% in size
# Details: purified Giardia FBPA; activity, negative = inhibition: at 59.6 µM (top of the series) unless noted
# Method in brief: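 40 nM FBPA preincubated 10 min at RT with compound (up to 57.5 uM final), then substrate plus GAPDH/TPI/NAD/arsenate coupling and diaphorase/resazurin added. Fluorescence read after 20 min at RT, 525/598 nm.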
# % is scaled to controls: 0 for no effect and ±100 for the full control effect; potency is read from the fitted curve at half-maximal effect; tags tell the direction and shape of the fitted curve.
SMILES,Potency,"activity, negative = inhibition"
O=C1c2ccccc2-c2onc3ccc(NCc4ccco4)c1c23,"inconclusive: 1.99 µM [inhibitor, full curve]",
Cc1cc(N2CCOCC2)n2nc(C(F)(F)F)c(-c3ccccc3)c2n1,"inconclusive: 39.8 µM [activator, single point]",
CCOc1ccccc1N1CC(O)=C(c2nc3ccccc3s2)C1=N,"inconclusive: 17.7 µM [inhibitor, single point]",
CC(=O)Nc1ccc(NC(=O)CSc2ccc(-c3cccs3)nn2)cc1,inactive,
CC[n+]1c(C)sc2sc3ccccc3c21,"inconclusive: 14.1 µM [inhibitor, partial curve]",
O=C(CNC1CCCC1)Nc1ccc(N2CCCCCC2)cc1,"inconclusive: 15.8 µM [inhibitor, partial curve]",
CN1CCN(C(c2cccnc2)c2ccc3cccnc3c2O)CC1 (configuration not stated),"inconclusive: 1.58 µM [inhibitor, partial curve]",
Cc1ccc(C)c(OCCCN2CCNCC2)c1,"inconclusive: 28.2 µM [inhibitor, single point]",
COc1ccc(NC2CCCN(C(=O)CSc3ccccn3)C2)cc1OC (configuration not stated),"inconclusive: 12.6 µM [inhibitor, partial curve]",
COc1ccccc1CNc1ncc(-c2ccccc2)n1C,"inconclusive: 28.2 µM [inhibitor, partial curve]",
Clc1cccc(CN2CCCCCC2)c1Cl,"inconclusive: 22.4 µM [inhibitor, partial curve]",
C=CCNCCCCOc1cccc(Br)c1,"inconclusive: 4.46 µM [inhibitor, partial curve]",
CCCCNC(=O)Oc1c(Br)cc2sc(=O)oc2c1Br,active: 15.8 µM,
O=C(Nc1ccc(F)cc1)c1ccc(Cn2cnnn2)cc1,inactive,
Cc1cc(NCc2ccccn2)n2nc(C)c(-c3ccccc3)c2n1,inactive,
CCOC(=O)c1cn(CC)c2cc(N3CCSCC3)c(F)cc2c1=O,inactive,
CCOC(=O)C1CCCN(C/C=C/c2ccccc2)C1 (configuration not stated),active: 15.8 µM,
CN1CCN(CC(=O)Nc2ccc(OC(F)(F)F)cc2)CC1,"inconclusive: 31.6 µM [inhibitor, single point]",
O=C(N/N=C/C=C\c1ccco1)c1ccccn1,"inconclusive: 19.9 µM [inhibitor, single point]",
COC(=O)Cc1cc(=O)n2[nH]c(C(F)(F)F)nc2n1,"inconclusive: 15.8 µM [inhibitor, single point]",
CSc1ccc(S(=O)(=O)N2CCC(C(=O)NCCc3ccccc3)CC2)cc1,inactive,
CCOC(=O)CN1NC2(CCCCCC2)NC1=S,"inconclusive: 14.1 µM [inhibitor, partial curve]",
O=C(Nc1nnc(CCc2ccccc2)s1)c1ccccc1,inactive,
Oc1ccc2ccccc2c1C=Nc1ccccc1,"inconclusive: 14.1 µM [inhibitor, partial curve]",

SMILES,Potency,"activity, negative = inhibition"
Cc1ccc(CSCC(=O)Nc2ccc3c(c2)OCO3)cc1,inactive,
c1ccc(-c2cn3c(n2)SCC3)cc1,inactive,
COc1ccc(-c2cc(OC(=O)c3ccc(F)cc3)c3c(C)oc(C)c3c(=O)c2)cc1,"inconclusive: 15.8 µM [inhibitor, partial curve]",
CC(C)N1CCc2c(sc(NC(=S)NC(=O)c3ccccc3)c2C#N)C1,"inconclusive: 15.8 µM [inhibitor, partial curve]",
CCN(Cc1ccccc1)C1CCN(Cc2ccc(SC)cc2)CC1,"inconclusive: 12.6 µM [inhibitor, partial curve]",
CCOc1cc(N2CCOCC2)c(OCC)cc1NC(=O)CCS(=O)(=O)c1ccc(Cl)cc1,"inconclusive: 14.1 µM [inhibitor, partial curve]",
O=C(NNC(=S)NC(=O)c1ccc(Br)cc1)c1ccc([N+](=O)[O-])cc1,"inconclusive: 22.4 µM [activator, partial curve]",
OC(COC1CCCCC1)CN1CCN(c2ccccc2)CC1 (configuration not stated),"inconclusive: 6.29 µM [activator, single point]",
COc1ccc(OC)c(/C=C2\SC(=S)N(NS(=O)(=O)c3ccc(C)cc3)C2=O)c1,"inconclusive: 28.2 µM [inhibitor, partial curve, poor fit]",
O=C(NN=C1C2CC3CC(C2)CC1C3)c1cccs1,inactive,
O=C(Nc1ccc2nsnc2c1)NC1CCCCC1,"inconclusive: 14.1 µM [inhibitor, partial curve]",
CCC/C(=N/NC(=O)c1cccc(Cl)c1)c1ccccc1,inactive,
COc1ccc2ccc3c(c2c1)N=C[C@]1(O3)N(C)c2ccccc2C1(C)C,active: 8.89 µM,
C[C@@H](NC(=O)c1nc[nH]c1C(=O)N[C@@H](CCCCNC(=O)OC(C)(C)C)C(=O)OC(C)(C)C)c1ccccc1,"inconclusive: 17.7 µM [inhibitor, partial curve]",
Cc1cccc(C(=O)Nc2sc3c(c2C(=O)O)CCC3)c1,"inconclusive: 15.8 µM [inhibitor, partial curve]",
Cc1ccc[n+](-c2[nH]c(=O)sc2/C=N/N=C(\[O-])c2cccnc2)c1,inactive,
CN(Cc1ccccc1)C(=O)C1CCCN(Cc2cccc(Cl)c2)C1 (configuration not stated),"inconclusive: 7.92 µM [inhibitor, full curve]",
C=CCNC(=O)CC1Nc2c3ccccc3nc(=S)n2C1=O (configuration not stated),"inconclusive: 15.8 µM [inhibitor, partial curve]",
CCN(Cc1ccccc1)Cc1c(F)cccc1F,"inconclusive: 22.3 µM [inhibitor, partial curve]",
COc1ccc(NC(=O)c2cc(S(=O)(=O)Nc3ccc(OC)cc3)cs2)cc1,inactive,
COc1ccc(N2CCN(S(=O)(=O)c3c(C)nc4sccn4c3=O)CC2)cc1,,inconclusive: 37.2% [activator]
Cc1cc2c(NC(=O)Nc3ccc(F)cc3)cccc2nn1,"inconclusive: 3.97 µM [inhibitor, partial curve]",
NC(=O)c1ccccc1NC(=S)NC(=O)c1ccc(Br)o1,"inconclusive: 17.7 µM [inhibitor, partial curve]",

# Source: PubChem BioAssay AID2451 (National Center for Advancing Translational Sciences (NCATS), 2010)
